Common to all, as to assay: Primary Screen for Target Class Profiling of Small Molecule Inhibitors of Methyltransferases
The target in experiment [1] is Glycine N-methyltransferase (Homo sapiens) (UniProt Q14749). The note with it: purified enzyme, MTase-Glo SAH luminescence; measured here: GNMT inhibition; at 40 µM; stronger effect = lower value. The method in brief:
(§1)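 Each enzyme was assayed with SAM and its substrate. SAH formation detected by MTase-Glo luminescence; single-point 40 uM screen[…].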

In experiment [2] the target is Guanidinoacetate N-methyltransferase (Homo sapiens) (UniProt Q14353). Particulars: purified enzyme, MTase-Glo SAH luminescence; measured here: GAMT inhibition; at 40 µM; stronger effect = lower value. The method, boiled down:
as §1

Experiment [3] has as its target Histamine N-methyltransferase (Homo sapiens) (UniProt P50135). The note with it: purified enzyme, MTase-Glo SAH luminescence; measured here: HNMT inhibition; at 40 µM; stronger effect = lower value. The method, boiled down:
as §1

Experiment [4] deals with Nicotinamide N-methyltransferase (Homo sapiens) (UniProt P40261). The note with it: purified enzyme, MTase-Glo SAH luminescence; measured here: NNMT inhibition; at 40 µM; stronger effect = lower value. The method, boiled down: as §1
Experiment [5] has as its target Phenylethanolamine N-methyltransferase (Homo sapiens) (UniProt P11086). Particulars: purified enzyme, MTase-Glo SAH luminescence; measured here: PNMT inhibition; at 40 µM; stronger effect = lower value. The method in brief: as §1

This is one part of the list. These are further read-outs of the screen, such as a control signal, another cell line or another target. No call is given for them.

These results are taken from PubChem BioAssay AID1745853 (National Center for Advancing Translational Sciences (NCATS), 2022).
On the % scale 0 is the no-effect control and ±100 the full control effect.

With `COc1ccccc1CNc1nc2c(S(=O)(=O)c3ccc(Br)cc3)nnn2c2ccccc12`, the activity change, negative = inhibition in experiment [1] is 2.59%; in experiment [2], 0%; in experiment [3], 4.16%; in experiment [4] it was -2.87%; in experiment [5], -2.31%.

For `CCCn1c(=O)c2ccc(C(=O)NCC(C)C)cc2n2c(=O)n(Cc3ccccc3Cl)nc12`, the activity change, negative = inhibition in experiment [1] was -4.32%; in experiment [2] it was 3.75%; in experiment [3], 1.47%; in experiment [4], -1.24%; in experiment [5], 0.974%.

As for `CC1(C(=O)NCc2ccccc2)Cn2c(ccc2-c2ccco2)C(=O)N1c1ccc(Br)cc1` (configuration not stated), the activity change, negative = inhibition was -17.9% in experiment [1]; -2.59% in experiment [2]; -3.27% in experiment [3]; -18.9% in experiment [4]; -12.8% in experiment [5].

Turning to `CC(C)CCn1c(=O)c2ccc(C(=O)NC3CCCCC3)cc2n2c(=O)n(Cc3ccccc3)nc12`, the activity change, negative = inhibition was 9.11% in experiment [1]; 2.39% in experiment [2]; 11.5% in experiment [3]; 7.63% in experiment [4]; 9.65% in experiment [5].

Take `Cc1cnc(CC2CCN(S(=O)(=O)c3ccc4c(c3)CCC4)CC2)n1CC1CC1`: the activity change, negative = inhibition in experiment [1] is -9.3%; in experiment [2], -6%; in experiment [3], -42.6%; in experiment [4] it was -44.1%; in experiment [5], -8.71%.

`CC(C)CCn1c(=O)c2ccccc2n2c(CCC(=O)N3CCN(c4cccc(Cl)c4)CC3)nnc12`: the activity change, negative = inhibition was -10.3% in experiment [1]; 4.16% in experiment [2]; 0.418% in experiment [3]; -46.3% in experiment [4]; -3.93% in experiment [5].

Regarding `COc1ccccc1N1CCN(C(=O)CCc2nnc3n(Cc4ccc(F)cc4)c(=O)c4ccccc4n23)CC1`, the activity change, negative = inhibition is -8.97% in experiment [1]; 2.35% in experiment [2]; -3.71% in experiment [3]; -5.36% in experiment [4]; -1.27% in experiment [5].

`O=C(Nc1ccc(N2CCC(C(=O)N3CCOCC3)CC2)cc1)c1cnc(Oc2ccccc2)nc1`: the activity change, negative = inhibition is -5.32% in experiment [1]; -6.15% in experiment [2]; 1.05% in experiment [3]; -19% in experiment [4]; -5.4% in experiment [5].

Regarding `CCc1cc2c(cc3n2CC(C)(C(=O)NC2CCCCCC2)N(Cc2ccccn2)C3=O)s1` (configuration not stated), the activity change, negative = inhibition in experiment [1] was -1.78%; in experiment [2], 7.35%; in experiment [3], 2.54%; in experiment [4], -23.4%; in experiment [5], 0.689%.

Turning to `Cc1ccc(N2C(=O)c3ccc(-c4ccco4)n3CC2(C)C(=O)NCc2ccc(Cl)cc2)cc1F` (configuration not stated), the activity change, negative = inhibition was -5.97% in experiment [1]; 4.74% in experiment [2]; 2.73% in experiment [3]; -0.191% in experiment [4]; -2.87% in experiment [5].

Consider `Cc1cc2c(cc3n2CC(C)(C(=O)NC2CCCCC2)N(CCCc2ccccc2)C3=O)o1` (configuration not stated), for which the activity change, negative = inhibition amounted to 5.95% in experiment [1]; 8.33% in experiment [2]; 6.82% in experiment [3]; 2.9% in experiment [4]; 0.704% in experiment [5].

Turning to `COc1cncc([C@@H](NC(=O)CCc2c(C)noc2C)C2CC(O)C2)c1` (some centres not stated), the activity change, negative = inhibition was -3.1% in experiment [1]; 1.27% in experiment [2]; 1.27% in experiment [3]; 0.852% in experiment [4]; 15.4% in experiment [5].

Take `CC(C)n1c(=O)c2ccc(C(=O)NC3CCCC3)cc2n2c(=O)n(CC(=O)c3ccccc3)nc12`: the activity change, negative = inhibition in experiment [1] is -4.72%; in experiment [2] it was -12.2%; in experiment [3], 0.804%; in experiment [4], -7.91%; in experiment [5], -4.77%.

With `O=C([C@@H]1C[C@H](F)CN1S(=O)(=O)Cc1ccccc1Cl)N1CCCCC1`, the activity change, negative = inhibition in experiment [1] was -5.45%; in experiment [2], -7.99%; in experiment [3] it was -1.72%; in experiment [4], -7.56%; in experiment [5], -3.87%.

`CCCOc1ccc(CN2C(=O)c3cc4oc(C)cc4n3CC2(C)C(=O)NC2CCCCC2)cc1` (configuration not stated): the activity change, negative = inhibition was -0.519% in experiment [1]; 7.06% in experiment [2]; 0.904% in experiment [3]; -9.3% in experiment [4]; -1.28% in experiment [5].

For `CNC(=O)c1ccc(CN2CC3(CCN(C(C)=O)CC3)CC2C(=O)O)o1` (configuration not stated), the activity change, negative = inhibition was -3.98% in experiment [1]; -6.57% in experiment [2]; -2.9% in experiment [3]; -7.97% in experiment [4]; -8.52% in experiment [5].

Take `CC(C)S(=O)(=O)NC[C@H](C)c1ccc(-c2ccc(CCNS(C)(=O)=O)cc2)cc1`: the activity change, negative = inhibition in experiment [1] is -1.25%; in experiment [2], 0.995%; in experiment [3], 7.44%; in experiment [4], -15.8%; in experiment [5], -8.41%.

Consider `O=C1CN(Cc2ccc(Cl)cc2)S(=O)(=O)c2ccccc2N1Cc1ccc(F)cc1`, for which the activity change, negative = inhibition in experiment [1] is -3.92%; in experiment [2], -5.71%; in experiment [3], 2.6%; in experiment [4], -12.5%; in experiment [5] it was -6.45%.

Consider `C=C[C@H]1[C@H](O[C@@H]2O[C@H](CO)[C@@H](O)[C@H](O)[C@H]2O)OC=C(C(=O)OC)[C@H]1C[C@@H]1N[C@H](C(=O)O)Cc2c1[nH]c1ccccc21`, for which the activity change, negative = inhibition in experiment [1] is 0.999%; in experiment [2] it was -7.51%; in experiment [3], 3.95%; in experiment [4], -17.2%; in experiment [5] it was -1.57%.

Regarding `O=C1NC2(CCN(C(=O)c3ccc4c(c3)OCO4)C2)Oc2ccccc21` (configuration not stated), the activity change, negative = inhibition in experiment [1] was -6.36%; in experiment [2] it was -7.21%; in experiment [3], -3.83%; in experiment [4] it was -11.7%; in experiment [5], -6.72%.

As for `CC1CCN(S(=O)(=O)c2ccc3c(ccn3CC(=O)NCc3ccc(N(C)C)cc3)c2)CC1`, the activity change, negative = inhibition in experiment [1] was 5.99%; in experiment [2], 6.15%; in experiment [3], -2.98%; in experiment [4] it was -0.01%; in experiment [5], 0.887%.

On to `COc1ccc2c(Oc3ccc(NC(=O)c4c(C)n(CC(C)(C)O)n(-c5ccccc5)c4=O)cc3F)ccnc2c1`, for which the activity change, negative = inhibition in experiment [1] was 0.814%; in experiment [2] it was -1.61%; in experiment [3] it was -59.2%; in experiment [4], -32%; in experiment [5] it was 2.81%.

For `O=C(CCCN1CCC(O)(c2cccc(C(F)(F)F)c2)CC1)c1ccc(F)cc1`, the activity change, negative = inhibition in experiment [1] was -1.32%; in experiment [2] it was 7.69%; in experiment [3] it was 2.83%; in experiment [4] it was -8.99%; in experiment [5] it was -5.65%.

As for `Cc1cccc(C(=O)N2CCCC(c3nnnn3-c3ccccc3)C2)c1` (configuration not stated), the activity change, negative = inhibition is -1.43% in experiment [1]; -0.76% in experiment [2]; -3.01% in experiment [3]; -7.41% in experiment [4]; -4.82% in experiment [5].

For the compound `COc1cccc(NC(=O)CCc2nnc3n(CCc4ccccc4)c(=O)c4ccccc4n23)c1`, the activity change, negative = inhibition in experiment [1] is -0.435%; in experiment [2] it was 1.71%; in experiment [3] it was 6.81%; in experiment [4], -0.699%; in experiment [5], -0.875%.

Regarding `CC1CCCCC1NC(=O)C1(C)Cn2c(ccc2-c2ccco2)C(=O)N1CCCc1ccccc1` (configuration not stated), the activity change, negative = inhibition is -10.8% in experiment [1]; 4.14% in experiment [2]; -5.47% in experiment [3]; -10.9% in experiment [4]; -3.84% in experiment [5].

As to `CCC1CN(C(=O)c2ccc(NCc3cnn(CC)c3)nc2)CCN1C(C)C` (configuration not stated), the activity change, negative = inhibition in experiment [1] is -3.11%; in experiment [2], -3.32%; in experiment [3], -11.3%; in experiment [4] it was 1.24%; in experiment [5], -3.3%.

On to `CN(C)CCCn1cc(C2=C(c3c[nH]c4ccccc34)C(=O)NC2=O)c2ccccc21`, for which the activity change, negative = inhibition in experiment [1] is -48.9%; in experiment [2], -25.4%; in experiment [3], -74.5%; in experiment [4] it was -49.1%; in experiment [5], -46.2%.

In the case of `Cc1ccc2c(c1)c(-n1cccc1)c1n2CC(C)(C(=O)NCCC(C)C)N(Cc2ccco2)C1=O` (configuration not stated), the activity change, negative = inhibition in experiment [1] is -11.6%; in experiment [2], -0.372%; in experiment [3] it was -2.44%; in experiment [4], -7.81%; in experiment [5], -6.11%.

As for `CNC(C)C(=O)NC(C(=O)N1CCCC1c1nc(C(=O)c2ccc(F)cc2)cs1)C1CCCCC1` (configuration not stated), the activity change, negative = inhibition in experiment [1] was -6.25%; in experiment [3], 3.52%.

For `Cc1ccc(NC(=O)Cn2nc3n(C)c(=O)c4ccc(C(=O)NC5CCCC5)cc4n3c2=O)cc1`, the activity change, negative = inhibition in experiment [1] came out at 8.62%; in experiment [2] it was 0%; in experiment [3], 5.91%; in experiment [4], 1.34%; in experiment [5], 5.91%.

Take `CC(C)CNC(=O)c1nc(-c2ccc(Cl)cc2)c2cnccn12`: the activity change, negative = inhibition in experiment [1] is -14.1%; in experiment [2] it was -11.1%; in experiment [3] it was -14%; in experiment [4], -33.4%; in experiment [5], -6.61%.

As to `CC1(C(=O)NC2CCCCCCC2)Cn2c(cc3occc32)C(=O)N1Cc1ccccn1` (configuration not stated), the activity change, negative = inhibition in experiment [1] is 3.64%; in experiment [2], -1.95%; in experiment [3], 8.89%; in experiment [4] it was -9.3%; in experiment [5], 0.675%.

For `CC(C)CCNC(=O)C1(C)Cn2c(cc3ccccc32)C(=O)N1Cc1ccccc1` (configuration not stated), the activity change, negative = inhibition in experiment [1] is 2.52%; in experiment [2], 0%; in experiment [3] it was 5.25%; in experiment [4], 3.53%; in experiment [5] it was -0.514%.

Consider `CN1C(=O)c2cc(C(=O)NCc3ccc4c(c3)OCO4)nn2CC1(C)C(=O)NCc1ccccc1` (configuration not stated), for which the activity change, negative = inhibition amounted to 4.16% in experiment [1]; 0% in experiment [2]; 1.1% in experiment [3]; 2.64% in experiment [4]; 0.907% in experiment [5].

For the compound `COc1c(C)cc(NC(=O)c2nn(Cc3ccc(F)cc3)c3c2CN(C(=O)c2ccc[nH]2)C[C@]3(C)C(N)=O)cc1C`, the activity change, negative = inhibition is -2.22% in experiment [1]; 6.02% in experiment [2]; 6.33% in experiment [3]; -7.95% in experiment [4]; 2.86% in experiment [5].

For the compound `CCCN1C(=O)c2cc(C(=O)NCc3ccc(N(C)C)cc3)nn2CC1(C)C(=O)NC1CCCC1` (configuration not stated), the activity change, negative = inhibition in experiment [1] is -0.206%; in experiment [2] it was 1.53%; in experiment [3] it was 1.57%; in experiment [4] it was 0.137%; in experiment [5], -1.51%.
